Results from PubChem BioAssay (NCATS).
Inconclusive results, whose numbers are uncertain, are shown with a selection of clear calls. For some assays here: Where the call is inconclusive, the potency comes from a doubtful curve fit. For some assays here: A note “side channel” means that the fit belongs to a control or component signal, not to the main read-out. The source made the active and inactive calls. Unless noted, calls follow the shape of the dose curve; as a rule, active = well fitted curve in the direction sought with a large enough effect; inconclusive = small, poorly fitted or top-dose-only effect, or another doubt; inactive = no such curve, though single readings can be large; an effect the other way counts as inactive or inconclusive.

Key:
[1] = target: Dual specificity protein kinase CLK4 (Homo sapiens) (UniProt Q9HAZ1); assay: qHTS Assay for Inhibitors of CDC-like Kinase 4 (ADP-Glo Assay) (AID 1771); details: recombinant CLK4, ADP-Glo luminescence; series mostly up to 80 µM; also: nearly all actives have a fitted effect of over 70% in size; also: potency is read from the fitted curve at half-maximal effect; as to activity change, negative = inhibition: % is scaled to controls: 0 for no effect and ±100 for the full control effect
Procedure, shortened: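 Luminescence from ADP-Glo reports ADP produced by 25 nM Clk4 acting on 100 uM RS repeat peptide with 1 uM ATP over 1 hr at room temperature; residual ATP is depleted before ADP is converted to ATP for detection.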

[2] = target: Ubiquitin carboxyl-terminal hydrolase 1 (Homo sapiens) (UniProt O94782); assay: Inhibitors of USP1/UAF1: Pilot qHTS (AID 504865); details: purified USP1/UAF1, Ub-rhodamine cleavage fluorescence; series mostly up to 54.9 µM; also: potency is read from the fitted curve at half-maximal effect;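 also: rhodamine fluorescence freed from ubiquitin-rhodamine substrate followed over time; nearly all actives have a fitted effect of over 35% in size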
Procedure, shortened: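 Enzyme-free wells gave the negative control, while test wells held 1nM USP1/UAF1 preincubated with compound for 15 min at room temperature. Ub-Rho at 150nM final started the reaction, and fluorescence at 480/540 nm was recorded kinetically.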

[3] = AP1 Signaling Pathway (AID 357; active = well fitted curve in either direction with a large enough effect, not every such curve was filed as active; inconclusive = small, poorly fitted or top-dose-only effect, or another doubt; also: top concentration of the series differs between compounds; % is scaled to controls: 0 for no effect and ±100 for the full control effect); details: ME-180 AP-1-bla reporter, EGF-induced, beta-lactamase ratio, 5 h; at 17.2 µM (top of the series) unless noted
Procedure, shortened: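 AP-1-bla ME-180 cells with beta-lactamase reporter under AP-1 response element, stimulated with EC50 EGF; compounds titrated, 5 hours at 37 degrees Celsius. CCF4 read at 460/530 nm ratio; positive and negative modulators judged by AC50.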

[4] = Stat Signaling Pathway (AID 446; active = well fitted curve in either direction with a large enough effect, not every such curve was filed as active; inconclusive = small, poorly fitted or top-dose-only effect, or another doubt;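 also: ME-180 cervical cancer cells given 40 pM IL-6 alongside compound; SIE-controlled beta-lactamase reporter measured as 460/530 nm FRET emission ratio; top concentration of the series differs between compounds; % is scaled to controls: 0 for no effect and ±100 for the full control effect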); details: ME-180 SIE beta-lactamase reporter, IL-6 stimulated, 5 h; at 7.69 µM (top of the series) unless noted
Procedure, shortened: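 ME-180 SIE-bla cells; overnight plating; cpd + IL-6 40 pM, 5 h, 37 C; LiveBLAzer 2.5 h RT; 460/530 nm emission ratio. Normalized to 300 pM IL-6 and 125 nM JAK inhibitor controls.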

[5] = target: 3',5'-cyclic-AMP phosphodiesterase 4B (Homo sapiens) (UniProt Q07343); assay: qHTS Assay for Inhibitors of PDE-IV (AID 607; active = well fitted activation curve with a large enough effect in the main read-out, with a control signal flat, not every such curve was filed as active; inconclusive = small, poorly fitted or top-dose-only effect, or effect the other way, or a change in a side signal; also: potency is read from the fitted curve at half-maximal effect); details: HEK293 ACTOne CNG channel cells, membrane potential fluorescence; activation (PDE inhibition): at 22.9 µM (top of the series)
Procedure, shortened: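 ACTOne HEK293 cells carry a modified cAMP-gated CNG channel and express endogenous PDE4; plated 1000 cells/well, compounds up to 22.9 uM final. Membrane-potential dye fluorescence (ex 535/em 590) was read; parental cells received 10 uM forskolin + 100 uM RO 20-1724.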

[6] = qHTS Assay for Identification of Small Molecule Agonists for Hypoxia Response Element Signaling Pathway (AID 914; active = well fitted activation curve with a large enough effect in the signal ratio, with a control signal flat, not every such curve was filed as active; inconclusive = small, poorly fitted or top-dose-only effect, or effect the other way, or a change in a side signal; the % refers to the signal ratio; also: potency is read from the fitted curve at half-maximal effect; as to activation: top concentration of the series differs between compounds; % of control where 0% means no effect); details: ME-180 (cervical carcinoma) HRE-bla reporter, beta-lactamase ratio, CoCl2, 17 h; activation: active compounds read high
Procedure, shortened: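 AC50 values come from titration-series %Activity, taken as the 460/530nm ratio of CCF4 fluorescence (excitation 405nm). CellSensor HRE-bla ME-180 cells were treated 17 hours at 37 C with compound plus an EC50 level of CoCl2.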

[7] = NFAT Signaling Pathway (AID 444; active = well fitted curve in either direction with a large enough effect, not every such curve was filed as active; inconclusive = small, poorly fitted or top-dose-only effect, or another doubt;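 also: carbachol stimulus at about its EC50 of 1 µM final; % is scaled to controls: 0 for no effect and ±100 for the full control effect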); details: Jurkat NFAT-bla M1, carbachol, beta-lactamase ratio, 5 h; at 17.2 µM (top of the series) unless noted
Procedure, shortened: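 Read-out: CCF4 FRET ratio (460 nm/530 nm) after 1 h RT dye loading, used for %activity and AC50 from titration series. Cells: Jurkat NFAT-β-lactamase/M1 line, treated with compound plus 1 uM carbachol for 5 h, 37 °C.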

[8] = target: Cytochrome P450 2C9 (Homo sapiens) (UniProt P11712); assay: qHTS Assay for Inhibitors and Substrates of Cytochrome P450 2C9 (AID 883); details: recombinant CYP2C9, luciferin-H luminescence, 60 min; activity change, negative = inhibition: at 57.1 µM (top of the series); also: potency is read from the fitted curve at half-maximal effect; nearly all actives have a fitted effect of over 60% in size
Procedure, shortened: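 Turnover of Luciferin-H (100uM, KM) by 10nM human CYP2C9 was measured over 60 min at 37C with NADPH regeneration; inhibitors and some substrates reduce luminescence. Data normalized to sulphaphenazole 57uM.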

[9] = target: Cytochrome P450 1A2 (Homo sapiens) (UniProt P05177); assay: p450-cyp1a2 (AID 410; calls by dose curve; also: potency is read from the fitted curve at half-maximal effect); details: recombinant CYP1A2, luciferin-ME demethylation, luminescence; series mostly up to 57 µM
Procedure, shortened: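 Luminescent readout of luciferin formed from Luciferin-ME by human CYP1A2; data normalized against complete inhibition by 57 uM furafylline. Enzyme 20nM, substrate 100uM at Km, 100mM KPO4 buffer, 60 min reaction at room temperature.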

[10] = target: Mitogen-activated protein kinase 10 (Mus musculus) (UniProt Q61831); assay: JNK3 AlphaScreen Assay (AID 530; active = well fitted curve in either direction with a large enough effect, not every such curve was filed as active; inconclusive = small, poorly fitted or top-dose-only effect, or another doubt;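 also: kinase came from lysate of stimulated human HepG2 cells; signal reports phosphorylation of biotinylated GST-cJun 1-79 at Ser73 with 10 µM ATP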; also: potency is read from the fitted curve at half-maximal effect); details: JNK3 lysate, c-Jun phosphorylation; activity change, negative = inhibition: at 57.1 µM (top of the series)
Procedure, shortened: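 Compound titrations were preincubated 15 minutes at room temperature with substrate, antibody and pre-activated JNK3-containing HepG2 lysate. Reactions were started with 10 uM ATP and stopped with EDTA-containing bead buffer for AlphaScreen detection.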

[11] = target: Glucocorticoid receptor (Homo sapiens) (UniProt P04150); assay: GR-EFC Redistribution (AID 451; calls by dose curve; also: potency is read from the fitted curve at half-maximal effect); details: CHO-K1 GR-EFC translocation, beta-gal luminescence, 2 h
Procedure, shortened: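 Translocation of GR-ED fusion to nuclear EA restores b-gal, read by luminescence after 1 h room-temperature detection. Engineered CHO-K1 biosensor cells, 1,000/well, exposed 2 h at 37 C to titrations up to 46 uM final.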

[12] = target: Cytochrome P450 2D6 (Homo sapiens) (UniProt P10635); assay: qHTS Assay for Inhibitors and Substrates of Cytochrome P450 2D6 (AID 891); details: recombinant CYP2D6, luciferin-ME EGE luminescence; activity change, negative = inhibition: at 57.1 µM (top of the series);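 also: luciferin methyl ether substrate demethylated by CYP2D6 with NADPH regeneration; potency is read from the fitted curve at half-maximal effect; nearly all actives have a fitted effect of over 60% in size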
Procedure, shortened: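 Human CYP2D6 (5 nM) with 30 uM Luciferin-ME EGE (at Km) in 100 mM KPO4, compound preincubated 10 min, then NADPH regeneration system for 60 min at room temperature. Luciferin read by luminescence; normalized to 1.43 uM quinidine.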
Tags tell the direction and shape of the fitted curve or compound fluorescence and quenching.

UniProt Q07343, sequence (Q07343 whole entry, looked up): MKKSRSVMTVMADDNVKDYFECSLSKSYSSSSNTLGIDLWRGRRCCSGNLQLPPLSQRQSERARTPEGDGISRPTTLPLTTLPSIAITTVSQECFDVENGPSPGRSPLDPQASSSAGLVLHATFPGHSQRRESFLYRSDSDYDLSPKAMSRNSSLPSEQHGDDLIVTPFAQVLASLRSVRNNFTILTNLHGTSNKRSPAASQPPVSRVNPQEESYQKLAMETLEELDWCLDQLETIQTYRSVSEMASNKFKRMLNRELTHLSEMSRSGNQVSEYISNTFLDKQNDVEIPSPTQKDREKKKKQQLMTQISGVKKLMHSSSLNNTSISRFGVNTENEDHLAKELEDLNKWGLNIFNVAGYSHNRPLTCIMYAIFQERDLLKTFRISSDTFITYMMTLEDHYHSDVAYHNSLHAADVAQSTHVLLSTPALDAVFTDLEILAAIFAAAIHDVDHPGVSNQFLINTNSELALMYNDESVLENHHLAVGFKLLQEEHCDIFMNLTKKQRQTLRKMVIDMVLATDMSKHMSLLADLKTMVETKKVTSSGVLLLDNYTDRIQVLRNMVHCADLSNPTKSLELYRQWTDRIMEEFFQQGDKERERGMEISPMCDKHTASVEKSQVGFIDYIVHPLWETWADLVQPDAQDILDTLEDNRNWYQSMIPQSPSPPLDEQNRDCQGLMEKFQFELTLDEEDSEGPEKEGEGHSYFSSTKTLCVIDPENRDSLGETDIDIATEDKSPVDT
UniProt O94782, sequence (O94782 whole entry, looked up): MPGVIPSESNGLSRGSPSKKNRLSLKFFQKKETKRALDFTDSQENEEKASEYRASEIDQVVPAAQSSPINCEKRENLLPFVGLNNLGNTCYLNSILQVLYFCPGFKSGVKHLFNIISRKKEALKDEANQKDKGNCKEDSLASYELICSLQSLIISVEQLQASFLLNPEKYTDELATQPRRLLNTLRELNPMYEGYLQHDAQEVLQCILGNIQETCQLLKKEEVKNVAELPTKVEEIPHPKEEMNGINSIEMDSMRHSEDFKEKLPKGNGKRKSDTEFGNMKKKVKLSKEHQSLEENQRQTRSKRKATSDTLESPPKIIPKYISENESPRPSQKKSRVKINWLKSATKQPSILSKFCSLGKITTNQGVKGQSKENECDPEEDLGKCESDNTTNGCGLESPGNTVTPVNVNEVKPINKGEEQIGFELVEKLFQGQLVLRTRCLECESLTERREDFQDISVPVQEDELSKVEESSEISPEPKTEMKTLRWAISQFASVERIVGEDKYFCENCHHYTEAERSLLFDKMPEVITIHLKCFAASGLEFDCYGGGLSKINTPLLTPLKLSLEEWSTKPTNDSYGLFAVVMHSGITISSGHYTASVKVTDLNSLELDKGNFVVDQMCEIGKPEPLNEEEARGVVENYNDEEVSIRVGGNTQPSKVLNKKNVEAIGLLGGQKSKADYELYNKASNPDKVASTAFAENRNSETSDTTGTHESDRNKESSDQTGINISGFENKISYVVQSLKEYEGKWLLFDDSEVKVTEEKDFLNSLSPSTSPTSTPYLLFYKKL
UniProt Q9HAZ1, sequence (Q9HAZ1 whole entry, looked up): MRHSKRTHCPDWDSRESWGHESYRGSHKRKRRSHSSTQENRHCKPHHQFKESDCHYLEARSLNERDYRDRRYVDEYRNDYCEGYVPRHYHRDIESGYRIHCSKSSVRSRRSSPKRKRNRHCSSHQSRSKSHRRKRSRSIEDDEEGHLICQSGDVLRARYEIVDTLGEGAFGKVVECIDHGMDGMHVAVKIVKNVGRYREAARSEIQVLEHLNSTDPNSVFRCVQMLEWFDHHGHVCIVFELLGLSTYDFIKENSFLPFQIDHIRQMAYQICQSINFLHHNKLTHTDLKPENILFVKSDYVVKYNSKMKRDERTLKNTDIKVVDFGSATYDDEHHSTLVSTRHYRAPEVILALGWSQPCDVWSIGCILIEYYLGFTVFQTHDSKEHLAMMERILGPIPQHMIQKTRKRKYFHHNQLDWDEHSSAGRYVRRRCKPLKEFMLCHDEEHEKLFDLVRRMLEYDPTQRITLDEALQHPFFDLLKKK
UniProt P05177, sequence (P05177 whole entry, looked up): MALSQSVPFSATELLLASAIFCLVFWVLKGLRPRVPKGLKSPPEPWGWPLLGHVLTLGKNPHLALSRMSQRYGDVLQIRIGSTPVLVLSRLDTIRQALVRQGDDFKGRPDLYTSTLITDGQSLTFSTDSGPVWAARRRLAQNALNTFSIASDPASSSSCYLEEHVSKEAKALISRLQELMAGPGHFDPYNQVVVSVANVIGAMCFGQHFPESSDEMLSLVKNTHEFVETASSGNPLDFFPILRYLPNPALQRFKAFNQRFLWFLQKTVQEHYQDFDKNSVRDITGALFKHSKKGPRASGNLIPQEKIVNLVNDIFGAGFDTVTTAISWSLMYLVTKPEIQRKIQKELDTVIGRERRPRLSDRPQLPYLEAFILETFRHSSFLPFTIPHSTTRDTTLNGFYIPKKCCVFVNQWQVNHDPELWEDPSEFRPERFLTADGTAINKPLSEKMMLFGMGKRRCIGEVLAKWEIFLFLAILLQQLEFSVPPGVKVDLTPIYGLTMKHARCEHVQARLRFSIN
UniProt P04150, sequence (P04150 whole entry, looked up, the tested form may be a part): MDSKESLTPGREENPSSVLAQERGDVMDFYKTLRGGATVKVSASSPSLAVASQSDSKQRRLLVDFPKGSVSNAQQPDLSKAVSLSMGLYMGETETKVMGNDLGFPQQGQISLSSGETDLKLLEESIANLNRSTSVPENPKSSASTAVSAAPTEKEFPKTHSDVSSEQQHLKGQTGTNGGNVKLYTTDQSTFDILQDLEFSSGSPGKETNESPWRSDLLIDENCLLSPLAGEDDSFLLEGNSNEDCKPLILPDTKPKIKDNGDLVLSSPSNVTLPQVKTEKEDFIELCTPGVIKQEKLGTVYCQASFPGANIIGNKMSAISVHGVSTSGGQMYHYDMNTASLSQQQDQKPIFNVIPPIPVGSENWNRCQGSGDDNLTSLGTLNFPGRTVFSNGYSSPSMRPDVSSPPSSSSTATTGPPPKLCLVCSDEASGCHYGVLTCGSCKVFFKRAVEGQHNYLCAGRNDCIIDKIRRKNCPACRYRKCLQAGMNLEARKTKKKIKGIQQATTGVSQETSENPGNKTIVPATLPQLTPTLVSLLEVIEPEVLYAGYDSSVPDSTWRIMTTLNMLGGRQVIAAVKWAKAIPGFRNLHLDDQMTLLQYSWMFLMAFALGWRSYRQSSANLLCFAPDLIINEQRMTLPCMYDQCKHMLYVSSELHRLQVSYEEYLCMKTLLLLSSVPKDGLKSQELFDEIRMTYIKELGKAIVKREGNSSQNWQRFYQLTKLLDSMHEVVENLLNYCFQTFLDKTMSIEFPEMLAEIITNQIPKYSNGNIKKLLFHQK
UniProt P11712, sequence (P11712 whole entry, looked up): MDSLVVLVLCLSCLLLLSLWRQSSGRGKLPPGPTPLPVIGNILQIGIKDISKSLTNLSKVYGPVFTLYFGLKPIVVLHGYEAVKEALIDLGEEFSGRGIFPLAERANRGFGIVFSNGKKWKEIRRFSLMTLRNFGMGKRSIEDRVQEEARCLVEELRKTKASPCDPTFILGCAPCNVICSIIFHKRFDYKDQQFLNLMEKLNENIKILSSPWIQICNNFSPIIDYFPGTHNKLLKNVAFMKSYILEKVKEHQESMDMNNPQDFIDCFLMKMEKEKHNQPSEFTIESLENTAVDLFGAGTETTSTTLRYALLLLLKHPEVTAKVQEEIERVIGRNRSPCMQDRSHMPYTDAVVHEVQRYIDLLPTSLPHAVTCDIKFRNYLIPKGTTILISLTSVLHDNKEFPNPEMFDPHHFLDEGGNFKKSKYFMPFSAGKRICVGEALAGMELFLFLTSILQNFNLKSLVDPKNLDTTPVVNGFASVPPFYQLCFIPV
UniProt P10635, sequence (P10635 whole entry, looked up): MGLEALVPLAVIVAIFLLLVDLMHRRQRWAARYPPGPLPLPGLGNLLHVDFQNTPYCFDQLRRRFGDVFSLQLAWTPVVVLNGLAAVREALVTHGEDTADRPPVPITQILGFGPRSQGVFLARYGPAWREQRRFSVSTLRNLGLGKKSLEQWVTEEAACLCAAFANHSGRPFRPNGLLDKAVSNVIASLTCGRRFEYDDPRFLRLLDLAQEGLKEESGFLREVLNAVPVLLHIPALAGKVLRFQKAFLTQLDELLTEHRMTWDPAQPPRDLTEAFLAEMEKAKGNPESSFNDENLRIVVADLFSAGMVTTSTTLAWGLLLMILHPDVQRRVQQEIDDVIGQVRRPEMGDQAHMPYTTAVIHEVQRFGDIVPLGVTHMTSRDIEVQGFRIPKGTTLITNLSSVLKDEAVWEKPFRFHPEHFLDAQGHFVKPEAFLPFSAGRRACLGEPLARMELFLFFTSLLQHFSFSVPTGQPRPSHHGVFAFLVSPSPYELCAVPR

For CN(C)C(=O)c1ccc(-c2cncnc2N(C)Cc2ccco2)cc1, the Potency [1] was “inactive” and the Potency [2] was “inactive”.

With COc1ccccc1CNc1cc(-c2ccc(C(=O)N(C)C)cc2)ncn1 the activity change, negative = inhibition [3] was inconclusive: 30.7% [activator] [at 7.69 µM], the activity, negative = inhibition [4] was inconclusive: 8.62% [inhibitor] and the Potency [5] was inconclusive: 10 µM [activator, partial curve]. The activation [6] was inactive: 6.06%, the Potency [1] was active: 7.08 µM and the Potency [2] was “inactive”.

For O=c1c(-c2ccccc2)nc2cnc(Nc3ccccc3)nc2n1Cc1cccs1, the activity change, negative = inhibition [7] was inconclusive: -34.6% [inhibitor] [at 7.69 µM], the activity, negative = inhibition [4] was inconclusive: 30.4% [activator] and the Potency [5] was inconclusive: 5.01 µM [activator, partial curve]. For the same molecule, the Potency [6] was inconclusive: 3.16 µM [fluorescent, side channel, partial curve] and the Potency [1] was “inactive”.

For N#Cc1cccc(-c2nc(NCc3cccnc3)c3ccccc3n2)c1, the Potency [5] was inconclusive: 10 µM [activator, partial curve], the Potency [8] was inconclusive: 1.58 µM [inhibitor, partial curve] and the Potency [1] was inconclusive: 3.98 µM [falling, full curve]. For the same molecule, the Potency [2] was “inactive”.

In the case of Cc1noc(C)c1-c1nc(Nc2ccccc2)c2ccccc2n1, the Potency [9] is reported as active: 0.251 µM, the Potency [5] is reported as inconclusive: 10 µM [activator, partial curve] and the Potency [1] is reported as inconclusive: 2 µM [falling, full curve].

In the case of COCCNc1nc(-c2cccc(NS(C)(=O)=O)c2)nc2ccccc12, the activity change, negative = inhibition [7] is reported as inactive: 22.3% [at 7.69 µM], the Potency [5] is reported as inconclusive: 10 µM [activator, partial curve] and the Potency [1] is reported as inconclusive: 5.62 µM [falling, full curve]. The Potency [2] was inconclusive: 15.8 µM [inhibitor, partial curve, poor fit].

With COc1ccccc1CNc1nc(-c2ccc3c(c2)OCO3)nc2ccccc12 the activity change, negative = inhibition [7] was inconclusive: -76.2% [inhibitor] [at 7.69 µM], the Potency [10] was “inactive” and the Potency [8] was inconclusive: 1.26 µM [inhibitor, single point]. For the same molecule, the Potency [1] was inconclusive: 35.5 µM [falling, single point] and the Potency [2] was “inactive”.

With COc1ccccc1CNc1ccnc(-c2ccccc2OC)n1 the Potency [1] was “inactive” and the Potency [2] was inconclusive: 39.8 µM [inhibitor, partial curve, poor fit].

For CN(C)C(=O)c1ccc(-c2cncnc2NCCc2cnc[nH]2)cc1, the Potency [11] was inconclusive: > 46 µM [single point] and the Potency [1] was inconclusive: 35.5 µM [falling, single point].

With Cc1noc(C)c1-c1ccc2ncnc(Nc3ccc(F)cc3)c2c1 the activity change, negative = inhibition [7] was inconclusive: -48.6% [inhibitor] [at 7.69 µM], the Potency [6] was inconclusive: 2.51 µM [activator, partial curve] and the Potency [1] was active: 6.31 µM.

For COCCn1c(=O)c(-c2cc(F)cc(F)c2)nc2cnc(N3CCOCC3)nc21, the activity, negative = inhibition [4] was inconclusive: 51.6% [activator] and the Potency [1] was “inactive”.

With COc1ncc2nc(-c3cn(C)c4ccccc34)c(=O)n(CCc3ccccc3)c2n1 the activity, negative = inhibition [4] was inconclusive: 52.5% [activator], the Potency [10] was inconclusive: 0.501 µM [activator, full curve, poor fit] and the Potency [5] was inconclusive: 15.8 µM [activator, single point]. The Potency [6] was active: 1 µM and the Potency [1] was “inactive”.

With COc1ccc(CNc2ncnc3ccc(-c4ccc5c(c4)OCO5)cc23)c(OC)c1 the activity change, negative = inhibition [7] was inconclusive: -32.2% [inhibitor] [at 7.69 µM], the Potency [5] was inconclusive: 12.6 µM [rising, single point] and the Potency [1] was active: 1.41 µM. The Potency [2] was “inactive”.

With CCNc1ncc2nc(-c3cc(F)cc(F)c3)c(=O)n(CCC#N)c2n1 the Potency [9] was inconclusive: 0.794 µM [decreasing], the Potency [12] was active: 0.0631 µM and the Potency [6] was inconclusive: 1.58 µM [activator, partial curve, poor fit]. The Potency [1] was inconclusive: 25.1 µM [falling, partial curve].

With O=c1cnc2cncnc2n1Cc1ccccc1Cl the activity change, negative = inhibition [7] was inactive: -28.3% [at 7.69 µM], the Potency [5] was inconclusive: 3.16 µM [activator, partial curve] and the Potency [1] was inconclusive: 31.6 µM [falling, single point].

In the case of FC(F)(F)c1ccccc1-c1nc(NCc2cccs2)c2ccccc2n1, the activity change, negative = inhibition [3] is reported as inconclusive: 87.6% [activator] [at 7.69 µM], the Potency [11] is reported as inconclusive: > 46 µM [single point] and the Potency [5] is reported as inconclusive: 12.6 µM [activator, partial curve]. For the same molecule, the activation [6] was inconclusive: -31.9%, the Potency [1] was “inactive” and the Potency [2] was active: 7.94 µM.

For CN(C)C(=O)c1ccc(-c2nccc(NCc3ccccc3)n2)cc1, the Potency [1] was “inactive” and the Potency [2] was “inactive”.
